The results in this text go back to the supplement of paper PMC4604168 (melanoma cell lines).

This is one part of the list. Many values rest on one well or one pass, so single values are uncertain.
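Also: cells treated in 1,536-well plates, then fixed and DAPI-stained, with nuclei counted from automated high-throughput microscope images.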

The test relates to WM1745. Put plainly: cell count relative to DMSO control; melanoma cells; higher = more viable cells. As to conditions: library dose: standard library concentration; 72 h.
`Cc1cc(Nc2cc(N3CCN(C)CC3)nc(Sc3ccc(NC(=O)C4CC4)cc3)n2)n[nH]1` [Tozasertib] + O=C(CCCCCCC(=O)Nc1ccccc1)NO [vorinostat] (first compound 0.03 µM, partner dose 0.4 µM) had a cell count of 55.6%.
The same measure for `Cc1cc(Nc2cc(N3CCN(C)CC3)nc(Sc3ccc(NC(=O)C4CC4)cc3)n2)n[nH]1` [Tozasertib] + Nc1nc(F)nc2c1ncn2[C@@H]1O[C@H](CO)[C@@H](O)[C@@H]1O [fludarabine] (first compound 0.03 µM, partner dose 1 µM): 59.5%.
With `N#CC[C@H](C1CCCC1)n1cc(-c2ncnc3[nH]ccc23)cn1` [ruxolitinib] + C=CCNC1=C2C[C@@H](C)C[C@H](OC)[C@H](O)[C@@H](C)/C=C(\C)[C@H](OC(N)=O)[C@@H](OC)/C=C\C=C(/C)C(=O)NC(=CC1=O)C2=O [Tanespimycin] (first compound 5 µM, partner dose 0.01 µM), the cell count is 34.4%.
The same measure for `N#CC[C@H](C1CCCC1)n1cc(-c2ncnc3[nH]ccc23)cn1` [ruxolitinib] + CO[C@@H]1[C@H](N(C)C(=O)c2ccccc2)C[C@H]2O[C@]1(C)n1c3ccccc3c3c4c(c5c6ccccc6n2c5c31)C(=O)NC4 [Midostaurin] (first compound 5 µM, partner dose 0.4 µM): 32.4%.
The same measure for `Cc1cc(Nc2cc(N3CCN(C)CC3)nc(Sc3ccc(NC(=O)C4CC4)cc3)n2)n[nH]1` [Tozasertib] + COc1cc2c(Oc3ccc4[nH]c(C)cc4c3F)ncnc2cc1OCCCN1CCCC1 [cediranib] (first compound 0.03 µM, partner dose 2 µM): 49.4%.
`N#CC[C@H](C1CCCC1)n1cc(-c2ncnc3[nH]ccc23)cn1` [ruxolitinib] + O=C(/C=C/c1cccnc1)NCCCCC1CCN(C(=O)c2ccccc2)CC1 [FK866] (first compound 5 µM, partner dose 0.05 µM) registered a cell count of 83.5%.
The same measure for `CC[C@]1(O)C[C@H]2CN(CCc3c([nH]c4ccccc34)[C@@](C(=O)OC)(c3cc4c(cc3OC)N(C=O)[C@H]3[C@@](O)(C(=O)OC)[C@H](OC(C)=O)[C@]5(CC)C=CCN6CC[C@]43[C@@H]65)C2)C1` [vincristine] + COc1cc(Nc2ncc(F)c(Nc3ccc4c(n3)NC(=O)C(C)(C)O4)n2)cc(OC)c1OC [Tamatinib] (first compound 0.0005 µM, partner dose 2 µM): 26.3%.
As for `N#CC[C@H](C1CCCC1)n1cc(-c2ncnc3[nH]ccc23)cn1` [ruxolitinib] + CC1(C)NC(=O)N(c2ccc([N+](=O)[O-])c(C(F)(F)F)c2)C1=O [nilutamide] (first compound 5 µM, partner dose 5 µM), the cell count was 58.9%.
The same measure for `CC[C@]1(O)C[C@H]2CN(CCc3c([nH]c4ccccc34)[C@@](C(=O)OC)(c3cc4c(cc3OC)N(C=O)[C@H]3[C@@](O)(C(=O)OC)[C@H](OC(C)=O)[C@]5(CC)C=CCN6CC[C@]43[C@@H]65)C2)C1` [vincristine] + CC1(C)NC(=O)N(c2ccc([N+](=O)[O-])c(C(F)(F)F)c2)C1=O [nilutamide] (first compound 0.0005 µM, partner dose 5 µM): 114%; for `N#CC[C@H](C1CCCC1)n1cc(-c2ncnc3[nH]ccc23)cn1` [ruxolitinib] + CC(C)C[C@H](NC(=O)[C@H](Cc1ccccc1)NC(=O)c1cnccn1)B(O)O [Bortezomib] (first compound 5 µM, partner dose 0.005 µM): 15.4%.
For `N#CC[C@H](C1CCCC1)n1cc(-c2ncnc3[nH]ccc23)cn1` [ruxolitinib] + CS(=O)(=O)CCNCc1ccc(-c2ccc3ncnc(Nc4ccc(OCc5cccc(F)c5)c(Cl)c4)c3c2)o1 [lapatinib] (first compound 5 µM, partner dose 4 µM), the cell count worked out at 68%.
The same measure for `Cc1cc(Nc2cc(N3CCN(C)CC3)nc(Sc3ccc(NC(=O)C4CC4)cc3)n2)n[nH]1` [Tozasertib] + C[C@]1(c2nc3c(C(N)=O)cccc3[nH]2)CCCN1 [Veliparib] (first compound 0.03 µM, partner dose 7 µM): 52.1%; for `N#CC[C@H](C1CCCC1)n1cc(-c2ncnc3[nH]ccc23)cn1` [ruxolitinib] + Cn1cncc1[C@@](N)(c1ccc(Cl)cc1)c1ccc2c(c1)c(-c1cccc(Cl)c1)cc(=O)n2C [tipifarnib] (first compound 5 µM, partner dose 0.05 µM): 104%; for `CC[C@]1(O)C[C@H]2CN(CCc3c([nH]c4ccccc34)[C@@](C(=O)OC)(c3cc4c(cc3OC)N(C=O)[C@H]3[C@@](O)(C(=O)OC)[C@H](OC(C)=O)[C@]5(CC)C=CCN6CC[C@]43[C@@H]65)C2)C1` [vincristine] + Cc1cc(Nc2cc(N3CCN(C)CC3)nc(/C=C/c3ccccc3)n2)n[nH]1 [ENMD2076] (first compound 0.0005 µM, partner dose 0.2 µM): 40.4%.
With `CC[C@]1(O)C[C@H]2CN(CCc3c([nH]c4ccccc34)[C@@](C(=O)OC)(c3cc4c(cc3OC)N(C=O)[C@H]3[C@@](O)(C(=O)OC)[C@H](OC(C)=O)[C@]5(CC)C=CCN6CC[C@]43[C@@H]65)C2)C1` [vincristine] + CN(NC(=O)CC(=O)NN(C)C(=S)c1ccccc1)C(=S)c1ccccc1 [STA4783] (first compound 0.0005 µM, partner dose 0.03 µM) the figure was 30.7%; with `CC[C@]1(O)C[C@H]2CN(CCc3c([nH]c4ccccc34)[C@@](C(=O)OC)(c3cc4c(cc3OC)N(C=O)[C@H]3[C@@](O)(C(=O)OC)[C@H](OC(C)=O)[C@]5(CC)C=CCN6CC[C@]43[C@@H]65)C2)C1` [vincristine] + CO[C@@H]1[C@H](N(C)C(=O)c2ccccc2)C[C@H]2O[C@]1(C)n1c3ccccc3c3c4c(c5c6ccccc6n2c5c31)C(=O)NC4 [Midostaurin] (first compound 0.0005 µM, partner dose 0.4 µM), 45.4%.
The same measure for `N#CC[C@H](C1CCCC1)n1cc(-c2ncnc3[nH]ccc23)cn1` [ruxolitinib] + CN1CCN(c2ccc3nc(-c4c(N)c5c(F)cccc5[nH]c4=O)[nH]c3c2)CC1 [Dovitinib] (first compound 5 µM, partner dose 0.5 µM): 52%; for `N#CC[C@H](C1CCCC1)n1cc(-c2ncnc3[nH]ccc23)cn1` [ruxolitinib] + CN(C)S(=O)(=O)c1ccc2c(c1)/C(=C/c1cc3c([nH]1)CCCC3)C(=O)N2 [SU6656] (first compound 5 µM, partner dose 2 µM): 66%; for `Cc1cc(Nc2cc(N3CCN(C)CC3)nc(Sc3ccc(NC(=O)C4CC4)cc3)n2)n[nH]1` [Tozasertib] + O=C(Nc1cccc(Cl)c1)Nc1ncc(CCNc2ncnc3ccsc23)s1 [SNS314] (first compound 0.03 µM, partner dose 0.004 µM): 48.2%.
`CC[C@]1(O)C[C@H]2CN(CCc3c([nH]c4ccccc34)[C@@](C(=O)OC)(c3cc4c(cc3OC)N(C=O)[C@H]3[C@@](O)(C(=O)OC)[C@H](OC(C)=O)[C@]5(CC)C=CCN6CC[C@]43[C@@H]65)C2)C1` [vincristine] + COc1ccc(Cl)c(Nc2nc3ccccc3nc2NS(=O)(=O)c2cccc(NC(=O)C(C)(C)N)c2)c1 [XL147] (first compound 0.0005 µM, partner dose 4 µM) returned a cell count of 66.9%.
Turning to `CC[C@]1(O)C[C@H]2CN(CCc3c([nH]c4ccccc34)[C@@](C(=O)OC)(c3cc4c(cc3OC)N(C=O)[C@H]3[C@@](O)(C(=O)OC)[C@H](OC(C)=O)[C@]5(CC)C=CCN6CC[C@]43[C@@H]65)C2)C1` [vincristine] + CO[C@H]1C[C@@H]2CC[C@@H](C)[C@@](O)(O2)C(=O)C(=O)N2CCCC[C@H]2C(=O)O[C@H]([C@H](C)C[C@@H]2CC[C@@H](OCCO)[C@H](OC)C2)CC(=O)[C@H](C)/C=C(\C)[C@@H](O)[C@@H](OC)C(=O)[C@H](C)C[C@H](C)/C=C/C=C/C=C/1C [everolimus] (first compound 0.0005 µM, partner dose 0.1 µM), the cell count turned out to be 84.2%.
The same measure for `Cc1cc(Nc2cc(N3CCN(C)CC3)nc(Sc3ccc(NC(=O)C4CC4)cc3)n2)n[nH]1` [Tozasertib] + C[C@@H]1CCN(C(=O)CC#N)C[C@@H]1N(C)c1ncnc2[nH]ccc12 [CP690550] (first compound 0.03 µM, partner dose 5 µM): 54.4%.
As for `N#CC[C@H](C1CCCC1)n1cc(-c2ncnc3[nH]ccc23)cn1` [ruxolitinib] + O=c1[nH]nc(Sc2ncc([N+](=O)[O-])s2)n1-c1ccc2c(c1)OCCO2 [BI78D3] (first compound 5 µM, partner dose 1 µM), the cell count came out at 72.8%.
As to `N#CC[C@H](C1CCCC1)n1cc(-c2ncnc3[nH]ccc23)cn1` [ruxolitinib] + OCCn1cc(-c2cnc3nnn(Cc4ccc5ncccc5c4)c3n2)cn1 [PF04217903] (first compound 5 µM, partner dose 5 µM), the cell count was 75%.
The same measure for `CC[C@]1(O)C[C@H]2CN(CCc3c([nH]c4ccccc34)[C@@](C(=O)OC)(c3cc4c(cc3OC)N(C=O)[C@H]3[C@@](O)(C(=O)OC)[C@H](OC(C)=O)[C@]5(CC)C=CCN6CC[C@]43[C@@H]65)C2)C1` [vincristine] + O=C(CCCCCCC(=O)Nc1ccccc1)NO [vorinostat] (first compound 0.0005 µM, partner dose 0.4 µM): 64.1%.
